About 16,000 (7.3%) of roughly 220,000 compounds were called active. The inconclusive results got no clear call from the source; some entries with a clear call stand among them for comparison. The call rests on the fitted dose curve; in most records, active means well fitted inhibition curve with a large enough effect (not every such curve was filed as active); inconclusive means small, poorly fitted or top-dose-only effect, or another doubt; inactive means no such curve, though single readings can be large or run the other way. A potency beside an inconclusive call is a rough fit, not a confirmed value.
target: Aldehyde dehydrogenase 1A1 (Homo sapiens) (UniProt P00352); assay: qHTS Assay for Inhibitors of Aldehyde Dehydrogenase 1 (ALDH1A1); conditions: Purified ALDH1A1, NADH fluorescence, propionaldehyde substrate; series mostly up to 75.3 µM;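 on activity, negative = inhibition: plate controls were no enzyme wells and a reference inhibitor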
UniProt P00352, sequence (P00352 whole entry, looked up): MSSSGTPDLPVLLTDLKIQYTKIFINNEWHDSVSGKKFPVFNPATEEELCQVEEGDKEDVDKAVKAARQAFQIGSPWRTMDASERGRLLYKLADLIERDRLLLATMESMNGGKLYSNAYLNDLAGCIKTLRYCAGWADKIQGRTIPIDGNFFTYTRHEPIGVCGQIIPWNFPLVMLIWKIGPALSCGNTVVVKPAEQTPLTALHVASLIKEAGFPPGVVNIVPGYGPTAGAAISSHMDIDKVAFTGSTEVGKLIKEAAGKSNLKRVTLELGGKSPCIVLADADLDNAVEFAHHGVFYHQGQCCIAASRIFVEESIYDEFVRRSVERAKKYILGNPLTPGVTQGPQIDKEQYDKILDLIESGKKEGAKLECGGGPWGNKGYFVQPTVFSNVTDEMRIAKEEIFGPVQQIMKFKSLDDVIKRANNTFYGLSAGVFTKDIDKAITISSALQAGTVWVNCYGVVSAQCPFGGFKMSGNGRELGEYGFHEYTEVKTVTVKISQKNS
Potency means the concentration at half of the fitted maximal effect; tags describe the fitted curve by direction and shape.

Potency, inactive:
CNS(=O)(=O)c1cc(NC(C)=O)c(C)cc1C
C=CCn1c(=S)sc2c(=O)[nH]c(C)nc21
O=C(CCn1cnc2ccccc2c1=O)Nc1nc(-c2ccc(Br)cc2)cs1
OC(c1ccc(Cl)cc1)c1nnc(-c2ccccc2)o1 (stereo unspecified)
COCCC(=O)Nc1ccc2c(c1)CN(C(=O)CCOC)CC2
Cc1cccc(NC2=NCC(=O)N2Cc2cccs2)c1
Cc1ccc(C(=O)N/C(=C/c2ccc(F)cc2)C(=O)NCc2ccncc2)cc1
O=C(NCc1ccc(Cl)cc1)c1ccc(-c2ccccc2C(F)(F)F)o1
O=C(CCS(=O)(=O)Cc1ccccc1)Nc1ccc2c(c1)OCCO2
N#CCCn1cc(C=O)c(-c2cccs2)n1
COc1ccc(/C=N/NC(=O)c2ccc(N)cc2)cc1Cn1cc([N+](=O)[O-])cn1

Potency, inconclusive:
Cn1c(SCC(=O)NCCc2ccc(S(N)(=O)=O)cc2)nc2ccccc2c1=O 31.6 µM [inhibitor, single point]
COc1cc(OC)c(S(=O)(=O)NCc2cccnc2)cc1NC(C)=O 39.8 µM [inhibitor, single point]
Cc1nn2c3ccccc3n(C)c2nc1=O 39.8 µM [inhibitor, single point]
N#C/C(=C\c1cc2ccccc2nc1N1CCCCC1)C(N)=O 20 µM [inhibitor, partial curve]
COC(=O)c1sc(S(=O)(=O)N2CCCCC2)c(C(=O)OC)c1C 39.8 µM [inhibitor, single point]
NC(=O)COC(=O)c1ccc(C(=O)C(=O)c2ccccc2)cc1 14.1 µM [inhibitor, partial curve]
COc1ccc(N2C(=O)CN=C2Nc2nc(C)cc(C)n2)cc1OC 39.8 µM [inhibitor, single point]
C/C=C(/CC[C@@H](C)[C@H]1CCC2C3=CC[C@H]4[C@H](C)[C@@H](O)CC[C@]4(C)C3CC[C@@]21C)C(C)C (stereo partly specified) 39.8 µM [inhibitor, single point]
Cc1ccc(-c2nnc(-c3ccc(NC(=O)Cc4cccs4)cc3)o2)cc1 6.31 µM [inhibitor, single point]
Cc1ccc(C)c(NC(=O)CSc2nnc(CCNC(=O)OC(C)(C)C)o2)c1 39.8 µM [inhibitor, single point]
CN(C)C(=O)c1ccc(-c2cncnc2NC2CCNCC2)cc1 39.8 µM [inhibitor, single point]
Cc1ccc2c(c1)c(=O)c1c3n2CCN(C(=O)CCl)C3CC1 (stereo unspecified) 0.794 µM [inhibitor, partial curve]
Cc1nc(N2CCCCC2)sc1C=O 44.7 µM [inhibitor, single point]
COc1cc2nc(N3CCN(C(=O)OCc4ccccc4)C(C(=O)NC(C)(C)C)C3)nc(N)c2cc1OC (stereo unspecified) 12.6 µM [inhibitor, partial curve]
COC(=O)c1c(NC(=O)CN(c2ccccc2)S(C)(=O)=O)sc2c1CCCC2 39.8 µM [inhibitor, single point]
COc1ccc(C(=O)Nc2ccc(N3CCN(C)CC3)cc2)cc1[N+](=O)[O-] 39.8 µM [inhibitor, single point]
O=C1CC(c2ccco2)=Nc2ccccc2N1 39.8 µM [inhibitor, single point]
CCC(=O)Nc1nc(C)c(-c2csc(Nc3cccc(C(=O)O)c3)n2)s1 10 µM [inhibitor, partial curve]
CCn1c(SC/C=C/c2ccccc2)nnc1-c1cccs1 39.8 µM [inhibitor, single point]
O=[N+]([O-])c1ccccc1/C=N/n1c(-c2cccnc2)n[nH]c1=S 35.5 µM [inhibitor, single point]
COc1ccc2[nH]c(=O)c(C(c3nnnn3CC3CCCO3)N3CCCCC3)cc2c1 (stereo unspecified) 31.6 µM [inhibitor, partial curve]
Cc1noc(C)c1-c1cc(N2CCN(C)CC2)ncn1 6.31 µM [inhibitor, full curve, poor fit]
CCCCCc1c(O)c2ccccc2[nH]c1=O 35.5 µM [inhibitor, partial curve]
Cc1ccc(NC(=O)c2ccccc2NS(=O)(=O)c2ccc(Cl)s2)cc1S(=O)(=O)N1CCOCC1 44.7 µM [inhibitor, single point]
COc1ccc(-c2cnn3c4c(c(C)nc23)CCN4C(C)C)cc1OC 37.7 µM [inhibitor, single point]
CCC1CCCCN1C(=O)CSc1nnc(-c2cccc(Cl)c2)o1 (stereo unspecified) 35.5 µM [inhibitor, single point]
COc1ccc(-c2ccc3ccccc3n2)cc1OC 35.5 µM [inhibitor, single point]
CCCc1nc(SC2CCCC2)c2c(=O)n(C)c(=O)n(C)c2n1 12.6 µM [inhibitor, partial curve]

Potency, active:
CC(C)C(=O)c1cn(CC(=O)NCC2CCCO2)c2ccccc12 (stereo unspecified) 22.4 µM
O=C(NCCCN=C1NS(=O)(=O)c2ccccc21)c1ccc(S(=O)(=O)N2CCCCC2)cc1 14.1 µM
O=C(/C=C/c1ccc(Br)o1)NCCCN1CCOCC1 2 µM
COc1cc(/C=C/C2=CC(C)(C)NC(=S)N2)cc(OC)c1OC 3.98 µM
CCOc1ccc(C(C)=O)cc1COC(=O)c1cnc(Cl)c(Cl)c1 0.708 µM
COc1ccc(CCNC(=O)c2ccc3c(=O)n(Cc4ccco4)c(=S)[nH]c3c2)cc1OC 2.51 µM

activity, negative = inhibition, inactive:
C[C@@H]1CCCN(CP(=O)(c2ccccc2)c2ccccc2)C1 1.85% [at 13.5 µM]

Source: PubChem BioAssay AID1030 (National Center for Advancing Translational Sciences (NCATS), 2008)
